Experimental data from the supplement of paper PMC11417369.
The other results are listed elsewhere or left out.

Each sequence was assayed on PF3D7_0420300 AP2 domain 1 (GST-tagged) (assay: gcPBM binding intensity (ln(normalized median fluorescence intensity)); higher = stronger DNA binding).
Method in brief: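 An Agilent 4 × 180k array of primer-extended double-stranded 36-bp intergenic genomic probes, with negative controls, was incubated for 1 h with GST-tagged P. falciparum DNA-binding domains expressed in E. coli. Alexa488 anti-GST antibody detected bound protein, scanned at 488 nm. Binding intensity is the highest Masliner-normalised natural-log median intensity across replicate spots of either probe orientation.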
“ATATTGTAAGTAAAATGTAATAAATATAATAAAATA [CACACA_negctrl_site697]” was tested, and the “gcPBM binding intensity (ln)” value was 9.34.
With “TTAGTATATACATTTGCACACATTATTTTTTAACAT [CACACA_site2618]” the “gcPBM binding intensity (ln)” value was 9.68.
With “TCCTTGCATTTTAAAACACACAAAAATTAATTGTTA [CACACA_site7152]” the “gcPBM binding intensity (ln)” value was 9.19.
“TAAAAATGTGGACACACACACATATATATATTTAAT [CACACA_site4941]” was tested, and the “gcPBM binding intensity (ln)” value was 9.79.
For “TTTCTAATTATTTCCCTTCAAATATATTAATATCGT [CACACA_negctrl_site429]”, the “gcPBM binding intensity (ln)” value was 9.13.
“ATATATATTATTATATGTACATATAAATATATTAAT [XGTACX_site5270]” was tested, and the “gcPBM binding intensity (ln)” value was 9.09.
With “AAAAGCTATAAAAATCGGTAATTTATAACAGGAATT [CACACA_negctrl_site469]” the “gcPBM binding intensity (ln)” value was 9.33.
With “AATGTTAAGGAGGGGAGTACATAAAATTCTCTCTCC [XGTACX_site1990]” the “gcPBM binding intensity (ln)” value was 9.03.
With “ATTATGTACTATTATACACACGTTTAATTGTAAATT [CACACA_site4278]” the “gcPBM binding intensity (ln)” value was 9.45.
“ATTATACACGCGCGCACACACAACAAAAAAAAAAAA [CACACA_site7630]” was tested, and the “gcPBM binding intensity (ln)” value was 9.69.
With “ATAATAATAAAGTGAACACACACATATAATATATAT [CACACA_site9378]” the “gcPBM binding intensity (ln)” value was 9.73.
For “TGGTAACAGCATAGAAAATGGACAAACGAAATATAA [GTGCAC_negctrl_site537]”, the “gcPBM binding intensity (ln)” value was 9.47.
With “TAAATAAACAAATTAACACACAGAATTTTTTTTTTC [CACACA_site1674]” the “gcPBM binding intensity (ln)” value was 9.44.
For “TATTTAAAAATAAAATGTACATATTATTATGCATTA [XGTACX_site1303]”, the “gcPBM binding intensity (ln)” value was 8.95.
In the case of “TTAATATTGTTATAGCGTACAAATAAACATATTAAA [XGTACX_site8153]”, the “gcPBM binding intensity (ln)” value is reported as 9.14.
In the case of “TTACATATTTATGATTGTACACATTTATAAACAATA [XGTACX_site2190]”, the “gcPBM binding intensity (ln)” value is reported as 9.11.
With TGATTCTAACTTATGGTGCAACATTATGGACACCGT the “gcPBM binding intensity (ln)” value was 8.99.
For AAAAGTCTCTTTTTAGTGCACATTTTATTTAAATAT, the “gcPBM binding intensity (ln)” value was 9.17.
In the case of “CAGATAAGGTGAAGCTGTACAAAAATGTTTTATAAC [XGTACX_site6783]”, the “gcPBM binding intensity (ln)” value is reported as 9.28.
With “TCTAATTATCACATTGCACACACATTTCCTTTTACA [CACACA_site9140]” the “gcPBM binding intensity (ln)” value was 9.98.
With “TTATACTGTATAGTCGCACACAAAAATATAAAATAT [CACACA_site3869]” the “gcPBM binding intensity (ln)” value was 9.47.
“TAATTAATTTATGTAACACACATTGTTGATTCAATA [CACACA_site1098]” was tested, and the “gcPBM binding intensity (ln)” value was 9.25.
“ATATTAAGAATGTATACATGCATATATATATAGTAC [TGCATGCA_site219]” was tested, and the “gcPBM binding intensity (ln)” value was 9.4.
In the case of “TTCGTTAAAAATAAATGTACATAAATAAACCTTATT [XGTACX_site621]”, the “gcPBM binding intensity (ln)” value is reported as 9.09.
For “ATTTTAATAAACACTTACATGTTTTCCAAATTGTAT [CACACA_negctrl_site1807]”, the “gcPBM binding intensity (ln)” value was 9.12.
In the case of “TATTAATAAATATGTTTACACACGAAAATACATTTT [CACACA_site1012]”, the “gcPBM binding intensity (ln)” value is reported as 9.41.
“AAAGATTTAGAAAATGAACACACGAGCACCCACCGA [CACACA_site1017]” was tested, and the “gcPBM binding intensity (ln)” value was 9.7.
With “GAAAGAGAGATATATACACACATATTTATATTTTTA [CACACA_site7057]” the “gcPBM binding intensity (ln)” value was 9.47.
With “TTATTATCTCTTGTCATTATTATATACTAAGAAGTA [CACACA_negctrl_site410]” the “gcPBM binding intensity (ln)” value was 9.12.
In the case of “AATATGAAATATATTACACACATTTATATGTTGAAA [CACACA_site1427]”, the “gcPBM binding intensity (ln)” value is reported as 9.46.
With “AATACACCCAGACACACACACAAAAAAAAAAAAAAA [CACACA_site513]” the “gcPBM binding intensity (ln)” value was 9.51.
For “TTTGAATCCTTATATACACACATTATGTAATATTAT [CACACA_site561]”, the “gcPBM binding intensity (ln)” value was 9.5.
For “AAAAGAGAAATGGGCACACACACACCGATTATATAT [CACACA_site4942]”, the “gcPBM binding intensity (ln)” value was 10.2.
For “ATATATATATTAAATACACACATTTTTGATTAGGTT [CACACA_site3119]”, the “gcPBM binding intensity (ln)” value was 9.44.
“ATTACATTTTTAATGCGTACTAAAAATGTATATAAG [XGTACX_site6384]” was tested, and the “gcPBM binding intensity (ln)” value was 8.96.
For “AGAATTACTTAAAAAAGTACATAAAATTATTTAAAA [XGTACX_site2205]”, the “gcPBM binding intensity (ln)” value was 9.04.
With “AATATAAAAATGTTTACACACACACCCAAATATATT [CACACA_site2511]” the “gcPBM binding intensity (ln)” value was 10.1.
For “TGTATAAATAAATGCGTACACACTAATAAAAAAAAA [CACACA_site858]”, the “gcPBM binding intensity (ln)” value was 9.45.
For “CAACTTTTTGAAAATTGTACATGACATATATATATA [XGTACX_site260]”, the “gcPBM binding intensity (ln)” value was 9.
For “TTATGTAAATAATTTTGTACTTAAATTATTATATAA [XGTACX_site1491]”, the “gcPBM binding intensity (ln)” value was 8.87.
With “AAAAAAAATATGATGAGTACACAATAATACATGCAA [XGTACX_site6999]” the “gcPBM binding intensity (ln)” value was 9.54.
With “AATATCTAAAATGTGTGTACATAATATTTTTAATAT [XGTACX_site3831]” the “gcPBM binding intensity (ln)” value was 9.45.
With GTGGTTATATATTAAGTGCATATTATAATTTTAAAC the “gcPBM binding intensity (ln)” value was 9.23.
In the case of “ATAGATAAAAAATTATTTATTTAGAATTTTTATGTA [CACACA_negctrl_site400]”, the “gcPBM binding intensity (ln)” value is reported as 8.76.
With “TTTATTCCAGTATTCACACACGAATAACCACATAAC [CACACA_site5104]” the “gcPBM binding intensity (ln)” value was 9.57.
In the case of “CTATACATATTATATAGTACTTTATTATTATGACTA [XGTACX_site1382]”, the “gcPBM binding intensity (ln)” value is reported as 9.14.
With “ATAATTCTTTATTATAGTACACAAACTTTCAAAACA [XGTACX_site3597]” the “gcPBM binding intensity (ln)” value was 9.06.
For “TATATAAGAGGAAAAAGTACAGAAAAACAAAGAGAA [XGTACX_site2926]”, the “gcPBM binding intensity (ln)” value was 9.83.
With “TTTATATCTTATTATAGGAAAATGAATATTTTCTCT [TGCATGCA_negctrl_site478]” the “gcPBM binding intensity (ln)” value was 8.96.
“ACAAAACATATATTCTGTACATATATAATGGTGACT [XGTACX_site6796]” was tested, and the “gcPBM binding intensity (ln)” value was 9.4.
In the case of “AAAAAAGAGGGATACACACAAACATATATATATATA [CACACA_site2243]”, the “gcPBM binding intensity (ln)” value is reported as 9.47.
In the case of “AAGAAAATATAAATATGTACTTAATAATTTATTTAT [XGTACX_site8100]”, the “gcPBM binding intensity (ln)” value is reported as 9.03.
“AGGATACACGGACACACACACATATATATATATATA [CACACA_site4654]” was tested, and the “gcPBM binding intensity (ln)” value was 9.9.
With “TATTAAAATAACATACGTACATAAGTATATAAAAAA [XGTACX_site1769]” the “gcPBM binding intensity (ln)” value was 9.3.
“TTTATTTTAAAATTTACACACAAAAGGATTTATAGA [CACACA_site2338]” was tested, and the “gcPBM binding intensity (ln)” value was 9.11.
With “TATATTAATTAACAGTGTACAAAAAAAAATAAAAAA [XGTACX_site3702]” the “gcPBM binding intensity (ln)” value was 9.5.
For “AAAATAAAAAGAAATTGTACGTATAATAATATATTT [XGTACX_site7593]”, the “gcPBM binding intensity (ln)” value was 9.25.
